Consider 15 test systems from the supplement of paper PMC9927326.

Common to all, as to test: CLSI broth microdilution.
(In broth dilution the organism is exposed to a series of concentrations in liquid medium.)

Compound in assay [1]: CCC(C)n1ncn(-c2ccc(N3CCN(c4ccc(OCC5COC(Cn6cncn6)(c6ccc(Cl)cc6Cl)O5)cc4)CC3)cc2)c1=O [itraconazole]
Compound in assay [2]: C[C@@H]1[C@H](O)[C@@H](C)/C=C/C=C/C=C/C=C/C=C/C=C/C=C/[C@H](O[C@@H]2O[C@H](C)[C@@H](O)[C@H](N)[C@@H]2O)C[C@@H]2O[C@](O)(C[C@@H](O)C[C@@H](O)[C@H](O)CC[C@@H](O)C[C@@H](O)CC(=O)O[C@H]1C)C[C@H](O)[C@H]2C(=O)O [amphotericin B]
Compound in assay [3]: CC[C@H](C)C[C@H](C)CCCCCCCCC(=O)N[C@H]1C[C@@H](O)[C@@H](NCCN)NC(=O)[C@@H]2[C@@H](O)CCN2C(=O)[C@H]([C@H](O)CCN)NC(=O)[C@H]([C@H](O)[C@@H](O)c2ccc(O)cc2)NC(=O)[C@@H]2C[C@@H](O)CN2C(=O)[C@H]([C@@H](C)O)NC1=O [caspofungin]
Compound in assay [4]: CC[C@@H]([C@H](C)O)n1ncn(-c2ccc(N3CCN(c4ccc(OC[C@@H]5CO[C@@](Cn6cncn6)(c6ccc(F)cc6F)C5)cc4)CC3)cc2)c1=O [posaconazole]
Compound in assay [5]: Nc1[nH]c(=O)ncc1F [flucytosine]
Compound in assay [6]: CCCCCOc1ccc(-c2ccc(-c3ccc(C(=O)N[C@H]4C[C@@H](O)[C@@H](O)NC(=O)[C@@H]5[C@@H](O)[C@@H](C)CN5C(=O)[C@H]([C@@H](C)O)NC(=O)[C@H]([C@H](O)[C@@H](O)c5ccc(O)cc5)NC(=O)[C@@H]5C[C@@H](O)CN5C(=O)[C@H]([C@@H](C)O)NC4=O)cc3)cc2)cc1 [anidulafungin]
Compound in assay [7]: CCCCCOc1ccc(-c2cc(-c3ccc(C(=O)N[C@H]4C[C@@H](O)[C@@H](O)NC(=O)[C@@H]5[C@@H](O)[C@@H](C)CN5C(=O)[C@H]([C@H](O)CC(N)=O)NC(=O)[C@H]([C@H](O)[C@@H](O)c5ccc(O)c(OS(=O)(=O)O)c5)NC(=O)[C@@H]5C[C@@H](O)CN5C(=O)[C@H]([C@@H](C)O)NC4=O)cc3)no2)cc1 [micafungin]
Compound in assay [8]: OC(Cn1cncn1)(Cn1cncn1)c1ccc(F)cc1F [fluconazole]
Compound in assay [9]: C[C@@H](c1ncncc1F)[C@](O)(Cn1cncn1)c1ccc(F)cc1F [voriconazole]

MIC of clinical C. albicans isolates, CLSI broth microdilution (ranges and time not stated); higher = less susceptible. Call: susceptible or wild type [S] / resistant or non-wild type [R] by CLSI breakpoints or epidemiological cut-offs; intermediate and dose-dependent carry no call here (the paper groups them with resistant). '<=' and '>=' mark each drug's lowest and highest value, inferred; the source prints them plain. Isolates are numbered anew. Bounds are passed on as bounds.

Consider “Candida albicans isolate 263 (Erg11p: K342R,E266D, Fur1p: WT, Tac1p: I558V,A377V,F189S,N174D,M170I,K87N)”, for which the minimal inhibitory concentration (MIC) (usually the lowest concentration found to suppress growth) in assay [1] was 0.06 mg/L [S]; in assay [2], 0.25 mg/L [S]; in assay [3], 0.03 mg/L [S]; in assay [4] it was 0.03 mg/L [S]; in assay [5], not above 0.06 mg/L [S]; in assay [6] it was 0.06 mg/L [S]. The MIC in assay [7] was 0.015 mg/L [S]; in assay [8], 0.5 mg/L [S]; in assay [9], not above 0.008 mg/L [S].
As to “Candida albicans isolate 264 (Erg11p: E266D,D153E, Fur1p: WT, Tac1p: N896S,I558V,A377V,F189S)”, the MIC was not above 0.015 mg/L [S] in [1]; 0.25 mg/L [S] in [2]; 0.015 mg/L [S] in [3]; not above 0.008 mg/L [S] in [4]; not above 0.06 mg/L [S] in assay [5]; 0.06 mg/L [S] in assay [6]. Further, the minimum inhibitory concentration (MIC) in [7] was 0.03 mg/L [S]; in [8], 1 mg/L [S]; in [9], not above 0.008 mg/L [S].
Consider “Candida albicans isolate 265 (Erg11p: WT, Fur1p: WT, Tac1p: WT)”, for which the MIC is 0.03 mg/L [S] in assay [1]; 0.25 mg/L [S] in assay [2]; 0.03 mg/L [S] in [3]; 0.015 mg/L [S] in assay [4]; not above 0.06 mg/L [S] in assay [5]; not above 0.015 mg/L [S] in assay [6]. The MIC in [7] was not above 0.008 mg/L [S]; in assay [8] it was 0.25 mg/L [S]; in assay [9], not above 0.008 mg/L [S].
As to “Candida albicans isolate 266 (Erg11p: WT, Fur1p: R101C, Tac1p: WT)”, the MIC in assay [1] was not above 0.015 mg/L [S]; in assay [2], 0.5 mg/L [S]; in assay [3], 0.015 mg/L [S]; in assay [4], 0.015 mg/L [S]; in assay [5], 0.25 mg/L [S]; in assay [6], not above 0.015 mg/L [S]. Further, the MIC in [7] is 0.015 mg/L [S]; in [8], 0.25 mg/L [S]; in assay [9], not above 0.008 mg/L [S].
As for “Candida albicans isolate 267 (Erg11p: E266D, Fur1p: WT, Tac1p: I558V,A377V,F189S,N174D,M170I,K87N)”, the MIC is 0.03 mg/L [S] in assay [1]; 0.5 mg/L [S] in assay [2]; 0.015 mg/L [S] in [3]; 0.015 mg/L [S] in assay [4]; not above 0.06 mg/L [S] in [5]; 0.06 mg/L [S] in assay [6]. The MIC in assay [7] is not above 0.008 mg/L [S]; in assay [8], 0.5 mg/L [S]; in [9] it was not above 0.008 mg/L [S].
For the test system “Candida albicans isolate 268 (Erg11p: K342R, Fur1p: WT, Tac1p: I558V,A377V,F189S,N174D,M170I,K87N)”, the MIC in [1] is 0.06 mg/L [S]; in [2] it was 0.25 mg/L [S]; in assay [3] it was 0.06 mg/L [S]; in [4] it was 0.015 mg/L [S]; in [5], not above 0.06 mg/L [S]; in assay [6] it was 0.12 mg/L [S]. Besides, the minimal inhibitory concentration (MIC) was 0.015 mg/L [S] in assay [7], 0.25 mg/L [S] in assay [8] and not above 0.008 mg/L [S] in [9].
In the case of “Candida albicans isolate 269 (Erg11p: V488I,E266D, Fur1p: WT, Tac1p: I895T,R673G)”, the MIC in assay [1] is 0.5 mg/L [R]; in assay [2] it was 0.5 mg/L [S]; in assay [3], 0.06 mg/L [S]; in assay [4], 0.5 mg/L [R]; in assay [5] it was 0.12 mg/L [S]; in [6], not above 0.015 mg/L [S]. Besides, the results for the MIC in assay [7], in [8] and in assay [9] were 0.03 mg/L [S], 16 mg/L [R] and 0.25 µg/mL, respectively.
With “Candida albicans isolate 270 (Erg11p: K342R,E266D, Fur1p: WT, Tac1p: I558V,A377V,F189S,N174D,M170I,K87N)”, the MIC was 0.03 mg/L [S] in assay [1]; 0.25 mg/L [S] in assay [2]; 0.06 mg/L [S] in assay [3]; 0.03 mg/L [S] in assay [4]; not above 0.06 mg/L [S] in [5]; 0.06 mg/L [S] in assay [6]. For the same test system, the MIC in [7] is 0.015 mg/L [S]; in assay [8], 0.25 mg/L [S]; in assay [9], not above 0.008 mg/L [S].
For the test system “Candida albicans isolate 271 (Erg11p: E266D, Fur1p: WT, Tac1p: N896S,I558V,A377V,F189S,N174D,M170I,K87N)”, the MIC in [1] is 0.03 mg/L [S]; in assay [2], 0.25 mg/L [S]; in assay [3] it was 0.03 mg/L [S]; in assay [4], 0.015 mg/L [S]; in assay [5] it was not above 0.06 mg/L [S]; in assay [6] it was 0.03 mg/L [S]. Besides, the minimum inhibitory concentration (MIC) in [7] is 0.015 mg/L [S]; in assay [8], 0.5 mg/L [S]; in [9], not above 0.008 mg/L [S].
Take “Candida albicans isolate 272 (Erg11p: WT, Fur1p: WT, Tac1p: M170V,S108N)”: the MIC in [1] is 0.03 mg/L [S]; in assay [2], 0.25 mg/L [S]; in assay [3], 0.03 mg/L [S]; in assay [4], 0.03 mg/L [S]; in [5] it was not above 0.06 mg/L [S]; in assay [6], 0.06 mg/L [S]. The MIC is 0.015 mg/L [S] in assay [7], 0.25 mg/L [S] in assay [8] and not above 0.008 mg/L [S] in assay [9].
Turning to “Candida albicans isolate 273 (Erg11p: E266D, Fur1p: WT, Tac1p: I558V,A377V,F189S,N174D,M170I,K87N)”, the MIC in assay [1] was 0.03 mg/L [S]; in assay [2] it was 0.5 mg/L [S]; in [3] it was 0.12 mg/L [S]; in assay [4] it was 0.015 mg/L [S]; in assay [5], not above 0.06 mg/L [S]; in [6], not above 0.015 mg/L [S]. The results for the minimum inhibitory concentration (MIC) in [7], in assay [8] and in assay [9] were 0.015 mg/L [S], 0.5 mg/L [S] and not above 0.008 mg/L [S], respectively.
Regarding “Candida albicans isolate 274 (Erg11p: E266D, Fur1p: WT, Tac1p: T885K,I558V,A430V,A377V,F189S,N174D,M170I,M170V,K87N)”, the MIC in assay [1] was 0.06 mg/L [S]; in [2], 1 mg/L [S]; in [3], 0.03 mg/L [S]; in assay [4] it was 0.03 mg/L [S]; in assay [5], not above 0.06 mg/L [S]; in [6] it was 0.03 mg/L [S]. In addition, the figures for the minimum inhibitory concentration (MIC) in [7], in assay [8] and in assay [9] were not above 0.008 mg/L [S], 0.25 mg/L [S] and not above 0.008 mg/L [S], respectively.
For “Candida albicans isolate 275 (Erg11p: V488I,E266D, Fur1p: WT, Tac1p: N896S)”, the minimal inhibitory concentration (MIC) in assay [1] is not above 0.015 mg/L [S]; in assay [2] it was 0.25 mg/L [S]; in assay [3], 0.015 mg/L [S]; in [4], 0.015 mg/L [S]; in [5], not above 0.06 mg/L [S]; in [6], not above 0.015 mg/L [S]. Also, the MIC is not above 0.008 mg/L [S] in [7], 0.25 mg/L [S] in assay [8] and not above 0.008 mg/L [S] in assay [9].
For “Candida albicans isolate 276 (Erg11p: WT, Fur1p: WT, Tac1p: N896S)”, the minimal inhibitory concentration (MIC) in [1] is 0.03 mg/L [S]; in assay [2] it was 0.5 mg/L [S]; in assay [3], 0.03 mg/L [S]; in [4], 0.015 mg/L [S]; in assay [5], not above 0.06 mg/L [S]; in assay [6], not above 0.015 mg/L [S]. Moreover, the MIC in [7] is not above 0.008 mg/L [S]; in assay [8], 0.25 mg/L [S]; in assay [9], not above 0.008 mg/L [S].
Consider “Candida albicans isolate 277 (Erg11p: G465S,Y132H, Fur1p: R101C, Tac1p: WT)”, for which the MIC in [1] was not above 0.015 mg/L [S]; in [2], 0.5 mg/L [S]; in assay [3] it was 0.03 mg/L [S]; in assay [4], 0.015 mg/L [S]; in assay [5], 0.5 mg/L [S]; in [6], 0.03 mg/L [S]. Further, the MIC in [7] is 0.03 mg/L [S]; in assay [8], 1 mg/L [S]; in assay [9] it was 0.12 mg/L [S].
